According to PubChem BioAssay AID463173 (ICCB-Longwood Screening Facility, Harvard Medical School, 2010):
Among all 52,000 compounds or so, about 1,700 (3.3%) were called active. Rule as the data show it: active = survival mostly below about 52% (no sharp cut-off); inactive = mostly above about 56%. The list shows a part of the results.

Each molecule was assayed on Wild type (assay: growth inhibition of S. aureus wild type versus tarO mutant, primary screen, teichoic acid synthesis inhibitors, RN4220, OD600 (AID 463173)). Conditions: S. aureus RN4220 wild type/DeltatarO growth, OD600, 18 h, stronger effect = lower value, screened at 18.75 µg/mL (by protocol).

Row | Compound | survival
1 | O=C(CSc1nc2ccccc2nc1Cc1ccc(Cl)cc1)Nc1ccc2c(c1)OCO2 | inactive: 70%
2 | Cc1ccc2c(=O)cc(C(=O)Nc3ccc(S(=O)(=O)N(C)c4ccccc4)cc3)oc2c1C | inactive: 87%
3 | COc1ccc(CCNC(=O)CCc2c(C)c3cc4c(C)c(C)oc4cc3oc2=O)cc1OC | inactive: 113%
4 | O=C(Cn1ncn2c(cc3sccc32)c1=O)NCCc1ccccc1 | inactive: 85%
5 | CCOC(=O)c1ccc(NC2=CC(c3ccc(OCC)cc3)N(c3ccc(C(=O)OCC)cc3)C2=O)cc1 (stereo not drawn) | inactive: 76%
6 | CCn1cc(C(=O)NCC(C)C)c(=O)c2cc(F)c(N3CCN(C(=O)c4ccco4)CC3)cc21 | inactive: 107%
7 | CCOC(=O)c1cnc2cc(C(F)(F)F)ccc2c1Nc1cc(C)ccc1OC | inactive: 67%
8 | Cc1ccc(-c2nc(CCNC(=O)c3ccc(C)c(C)c3)cs2)cc1 | inactive: 85%
9 | COc1ccc(-c2noc(CN(C)S(=O)(=O)c3c(C)cc(C)cc3C)n2)cc1OC | inactive: 78%
10 | CCC(C(=O)Nc1cccc(Cl)c1C)n1nc(C)c2sc3ccccc3c2c1=O (stereo not drawn) | inactive: 84%
11 | COc1ccc(C)cc1NC(=O)c1ccc(NS(=O)(=O)c2c(C)noc2C)cc1 | inactive: 85%
12 | Cc1[nH]n(-c2ccccc2)c(=O)c1/C=N/NC(=O)c1ccccc1 | inactive: 90%
13 | CC(=O)N1c2ccccc2C(=O)C1N1CCN(c2ccccc2F)CC1 (stereo not drawn) | inactive: 72%
14 | COc1ccccc1-c1nc2n(n1)C(c1ccccc1Cl)C(C(=O)Nc1cccnc1)=C(C)N2 (stereo not drawn) | inactive: 83%
15 | CCCCn1cc(S(=O)(=O)c2ccc(C)cc2)c(=O)c2cc(F)c(N3CCCCC3)cc21 | inactive: 138%
16 | CCOc1ccccc1NC(=O)CSc1nnc2[nH]c(=O)cc(C)n12 | inactive: 146%
17 | Cc1cc(O)c(C(c2ccccc2)N2CCCCC2)c(=O)n1Cc1ccco1 (stereo not drawn) | inactive: 77%
18 | CC(C)(C)OC(=O)N1CCC(c2c(C(=O)NCc3ccccc3)cnn2-c2cccc(F)c2)CC1 | inactive: 120%
19 | Nc1ncnc2c1c1nc3ccccc3nc1n2CCc1ccccc1 | inactive: 87%
20 | COCCCNC(=O)C1CCN(Cc2cc3ccccc3n2Cc2ccccc2C)CC1 | inactive: 78%
21 | Cc1oc(-c2ccc(Cl)cc2)nc1CN1CCCC(C(=O)NCCc2ccc(Cl)cc2)C1 (stereo not drawn) | inactive: 86%
22 | CCSc1nn(CC(=O)Nc2cccc(CC)c2)c(N)c1S(=O)(=O)c1ccccc1 | inactive: 95%

Row | Compound | survival
23 | Cc1ccc(S(=O)(=O)c2c(O)cc(C)c(NS(=O)(=O)c3ccc(Br)cc3)c2C)cc1 | active: -1%
24 | COc1ccc(NC(=O)c2c(NCc3cccs3)sc3c2CCC(C)C3)c(OC)c1 (stereo not drawn) | inactive: 66%
25 | O=C(CSc1nnc(-c2ccccc2Cl)o1)N1CCCc2ccccc21 | inactive: 35%
26 | Cc1nn(C)c2c1c(C(F)(F)F)cc(=O)n2C(C)C(=O)Nc1ccccc1F (stereo not drawn) | inactive: 89%
27 | CCOc1ccc(C(=O)c2cn(CC(=O)Nc3ccc(Cl)cc3)c3cc4c(cc3c2=O)OCO4)cc1 | inactive: 134%
28 | COc1ccc(-c2nnc(SCC(=O)Nc3cccc(C(F)(F)F)c3)s2)cc1 | inactive: 99%
29 | COc1ccc(S(=O)(=O)NCC(c2cccs2)S(=O)(=O)c2ccccc2)cc1OC (stereo not drawn) | inactive: 79%
30 | Cc1c(C(=O)N(Cc2ccccc2F)C2CCS(=O)(=O)C2)oc2ccccc12 (stereo not drawn) | inactive: 83%
31 | Cc1cc(NNC(=S)S)nc(N)n1 | inactive: 103%
32 | CC(=O)N1CCc2cc(Br)cc(S(=O)(=O)CCC(=O)N3CCN(c4ccc(F)cc4)CC3)c21 | inactive: 80%
33 | CCOc1ccc(/C=C(\C#N)C(=O)NCc2ccco2)cc1OC | inactive: 103%
34 | Cc1ccc(CN2CCC(CNC(=O)c3cnn(-c4ccccc4Cl)c3C3CCN(C(=O)OC(C)(C)C)CC3)CC2)cc1 | inactive: 110%
35 | COc1cc(/C=C/c2nc(C#N)c(N3CCN(C)CC3)o2)cc(OC)c1OC | inactive: 84%
36 | CN(C(=O)c1ccc2c(c1)N(Cc1cccc(Cl)c1)C(=O)c1ccccc1S2(=O)=O)C1CCCCC1 | inactive: 59%
37 | COc1cccc(NS(=O)(=O)c2ccc3c(c2)n(C)c(=O)n3C)c1 | inactive: 81%
38 | Cc1c(-c2nc(-c3ccccc3)no2)nnn1-c1ccc(F)c(Cl)c1 | inactive: 73%
39 | CCc1ccc(NC(=O)Cn2c(=O)n(-c3ccc(Cl)c(Cl)c3)c(=O)c3c(C)c(C)sc32)cc1 | inactive: 92%
40 | COc1ccc(Cl)c2sc(NC(=O)c3ccc(S(=O)(=O)N4CCOCC4)cc3)nc12 | inactive: 73%
41 | COCCNC(=O)c1cnc2sc(N3CCCCC3)nn2c1=O | inactive: 71%
42 | CSc1cccc(NC(=O)C2CCN(c3nc4ccccc4[nH]3)CC2)c1 | inactive: 78%
43 | Cc1ccc(Cn2c(SCc3ccc(C(=O)NC4CCCCC4)cc3)nc3ccncc32)cc1 | inactive: 75%
44 | CN(C(=O)CCc1nc(-c2ccccc2F)no1)c1ccc(Cl)cc1 | inactive: 68%

Row | Compound | survival
45 | CCOc1ccc(NC(=O)CCC(=O)Nc2cc(OC)c(NC(=O)c3ccco3)cc2OC)cc1 | inactive: 107%
46 | O=S(=O)(c1ccc(OC(F)(F)F)cc1)N1CCC(c2nnnn2-c2ccc(F)cc2)CC1 | inactive: 88%
47 | Cc1ccc(NC(=O)c2nc(S(C)(=O)=O)ncc2N(Cc2ccc(C(C)(C)C)cc2)Cc2ccco2)cc1C | inactive: 88%
48 | CCc1cccc(NC(=O)C2CCCN(c3ncnc4onc(-c5ccc(F)cc5)c34)C2)c1 (stereo not drawn) | inactive: 74%
49 | COc1cc(C(=O)NCC(c2ccc3c(c2)OCO3)N2CCOCC2)cc(OC)c1OC (stereo not drawn) | inactive: 65%
50 | CCCC(O)c1nc2ccccc2n1CCCOc1ccc(Cl)cc1 (stereo not drawn) | inactive: 97%
51 | CCOc1ccc(-c2cc3c(=O)n(CC(=O)NCc4ccc(C)cc4)ccn3n2)cc1 | inactive: 78%
52 | O=C(N/C(=C\c1ccc(O)cc1)C(=O)N1CCCCC1)c1ccccc1 | inactive: 96%
53 | CCc1nn(C)c(N)c1C | inactive: 99%
54 | CCn1cc(C(=O)OCC(=O)Nc2ccc(C)c(Cl)c2)c(=O)c2ccc(C)nc21 | inactive: 70%
55 | CCN1CCSc2ccc(C(=O)NCc3ccc(OC(C)C)cc3)cc21 | inactive: 85%
56 | COc1ccc(-c2noc(CSCC(=O)Nc3cc(OC)c(OC)c(OC)c3)n2)cc1OC | inactive: 72%
57 | CCOC(=O)Cc1ccc(NC(=O)NCc2c(-n3cccc3)sc3c2CCCC3)cc1 | inactive: 85%
58 | COc1ccc(N(Cc2cc3ccccc3[nH]c2=O)C(=O)c2cccc(Cl)c2)cc1 | inactive: 86%
59 | Cc1ccc(NC(=O)c2c(C)cc(C)nc2SCC(=O)Nc2ccc(Br)cc2)cc1 | inactive: 76%
60 | Cc1ccc(C(=O)N/C(=C/c2ccccc2)C(=O)NCc2ccco2)cc1 | inactive: 106%
61 | CN1CCCC(OC(=O)c2ccc(F)cc2)C1 (stereo not drawn) | inactive: 99%
62 | CC(=O)N1c2ccccc2CC1C(=O)N1CCN(c2ccccc2)CC1 (stereo not drawn) | inactive: 75%
63 | CCc1nc2ccc(C(=O)NCCc3ccccc3OC)cc2nc1CC | inactive: 72%
64 | O=C(CS(=O)(=O)c1cccc2nsnc12)Nc1ccccc1Cl | inactive: 74%
65 | OCCn1nnnc1-c1ccccc1 | inactive: 108%
66 | CCCCN1CC(c2nc3ccccc3n2CCCCOc2cc(C)ccc2C)CC1=O (stereo not drawn) | active: -6%

Row | Compound | survival
67 | Cc1cccc(OCC(=O)Nc2cccc(OCc3cc(=O)n4cccc(C)c4n3)c2)c1 | inactive: 120%
68 | O=C(/C=C/c1ccccc1)Nc1cc(-c2nc3cc(Cl)ccc3o2)ccc1Cl | inactive: 70%
69 | Cc1cc2nc(-c3cccc(NC(=O)c4cccc5ccccc45)c3)oc2cc1C | inactive: 82%
70 | CCOc1ccc(N2CC(NC(=O)c3ccco3)CC2=O)cc1 (stereo not drawn) | inactive: 75%
71 | CN1CCC(N(Cc2ccc3c(c2)OCO3)C(=O)c2cn(Cc3ccccc3)c3ccsc23)CC1 | inactive: 104%
72 | CC1CCCN(C(=O)c2cc3ccc4cccnc4c3[nH]2)C1 (stereo not drawn) | inactive: 83%
73 | COc1cccc(-n2ccnc2SCC(=O)Nc2c(C)cc(C)cc2C)c1 | inactive: 113%
74 | Cc1cc(C)c(NC(=O)Cn2c(=O)c3cccn3c3ccccc32)c(C)c1 | inactive: 76%
75 | CCCCNC(=O)c1ccc2c(c1)N(Cc1ccc(F)cc1)C(=O)c1ccccc1S2=O (stereo not drawn) | inactive: 93%
76 | CCSc1ncc(Cl)c(C(=O)N2CCN(c3ccccc3OC)CC2)n1 | inactive: 89%
77 | CCOCCCNC(=O)c1ccc(-n2c(-c3ccccc3)cc3c2CCCC3)cc1 | inactive: 86%
78 | Cc1ccc(NC(=O)/C=C\C(=O)N(c2ccc(C(C)C)cc2)C(C(=O)NCc2ccco2)c2ccc(Cl)cc2)cc1 (stereo not drawn) | inactive: 67%
79 | Cc1cccc(C(=O)OCc2cc(=O)n3ccsc3n2)c1 | inactive: 71%
80 | COc1ccc(CNC(=O)C2CCN(S(=O)(=O)c3c(C)noc3/C=C/c3ccccc3F)CC2)cc1 | inactive: 94%
81 | CC(C)(C)c1cc(C(F)(F)F)nc(SCCNC(=O)c2cnn3cccnc23)n1 | inactive: 107%
82 | COc1ccc(Cn2ccc3nc(C)c(C(=O)Nc4ccc(OC)cc4)cc3c2=O)cc1 | inactive: 85%
83 | Cc1ccc(-n2c(C)cc(C(=O)C(=O)Nc3ccccc3)c2C)c(C)c1 | inactive: 85%
84 | COc1ccc(CCNC(=O)CCn2c(=O)c3ccccc3n(Cc3ccccc3F)c2=O)cc1OC | inactive: 95%
85 | CC(=O)Nc1nc2n(n1)C(c1ccc(F)cc1)C=C(c1ccc(Cl)cc1)N2 (stereo not drawn) | inactive: 90%
86 | CC(C(=O)NCCSCc1cccc(Cl)c1)N(c1ccccc1)S(C)(=O)=O (stereo not drawn) | inactive: 90%
87 | CC(=O)c1cccc(NC(=O)C2CCN(S(=O)(=O)c3ccc4c(c3)CCCN4C(C)=O)CC2)c1 | inactive: 75%
88 | Cc1ccc(-c2nc(C)c(CCNC(=O)c3cccs3)s2)cc1 | inactive: 119%
